# Data from the supplement of paper PMC8728848.
# The other results are listed elsewhere or left out.
# B1: GS7807H-bfa-490-18-490 (Bacteroides fragilis) (protein)
# chain: GNLEEMNIDPDNATQTHPKLLLTQICMNAFKRGTDGMYATKKVIQADGESADQYYKWTRGSFGYYDNLRNVQKMGEEAERVNAPVYTALTKFFRAYYFYELTLRFGDIPYSQALKGEKEEIYTPEYDAQEDVFAGILQELREADEILANDASVIDGDIIYNGNSTQWRKLINSFRLKVLMTLSNHTTVGNINIASEFKNIATNSPLMNSLADNGQLVYLDQQGNRYPQFNAQWSGYYMDDTFIQRMRERRDPRLFIFSAQTNKGKTEGKPIDDFSSYEGGDPAAPYSDAIIKVSEGTISPINDRFRTDPIVEPTMLMGYAELQQILAEAVVRGWISGNAQTYYEKGIRASFSFYETHAKDYAGYLNENAVAQYLKEPLVDFTQASGTEEQIERIIMQKYLVTFYQGNWDSFYEQLRTGYPDFRRPAGTEIPKRWMYPQGEYDNNGTNVETAITRQFGAGNDKINQATWWQKKS
# Columns and labels:
# Experiment in all cases: glycan array binding signal (z-score within array); higher = stronger binding
# Conditions in all cases: glycan notation: IUPAC condensed, linker removed
# GlcNAc(b1-3)Gal(b1-4)Glc = target: GlcNAc(b1-3)Gal(b1-4)Glc
# Method in brief: (§1)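 The Consortium for Functional Glycomics database supplied 3228 glycan arrays, of which those lacking an available protein sequence were dropped. The binding signal, a within-array Z-score, was averaged across arrays of the same protein sequence and across linkers. Negative scores can be read as non-binding.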
# [1] = target: GlcNAc(b1-3)Gal(b1-4)GlcNAc
# Method in brief: as §1
# [2] = target: GlcNAc(b1-3)Gal(b1-4)GlcNAc(b1-2)Man(a1-3)[GlcNAc(b1-3)Gal(b1-4)GlcNAc(b1-2)Man(a1-6)]Man(b1-4)GlcNAc(b1-4)GlcNAc
# Method in brief: as §1
# [3] = target: GlcNAc(b1-3)Gal(b1-4)GlcNAc(b1-2)Man(a1-3)[GlcNAc(b1-3)Gal(b1-4)GlcNAc(b1-2)Man(a1-6)]Man(b1-4)GlcNAc(b1-4)[Fuc(a1-6)]GlcNAc
# Method in brief: as §1
# [4] = target: GlcNAc(b1-3)Gal(b1-4)GlcNAc(b1-2)[GlcNAc(b1-3)Gal(b1-4)GlcNAc(b1-6)]Man(a1-6)[GlcNAc(b1-3)Gal(b1-4)GlcNAc(b1-2)Man(a1-3)]Man(b1-4)GlcNAc(b1-4)GlcNAc
# Method in brief: as §1
# [5] = target: GlcNAc(b1-3)Gal(b1-4)GlcNAc(b1-3)Gal(b1-4)GlcNAc
# Method in brief: as §1
# [6] = target: GlcNAc(b1-3)Gal(b1-4)GlcNAc(b1-3)Gal(b1-4)GlcNAc(b1-2)Man(a1-3)[GlcNAc(b1-3)Gal(b1-4)GlcNAc(b1-3)Gal(b1-4)GlcNAc(b1-2)Man(a1-6)]Man(b1-4)GlcNAc(b1-4)GlcNAc
# Method in brief: as §1
# [7] = target: GlcNAc(b1-3)Gal(b1-4)GlcNAc(b1-3)Gal(b1-4)GlcNAc(b1-2)Man(a1-3)[GlcNAc(b1-3)Gal(b1-4)GlcNAc(b1-3)Gal(b1-4)GlcNAc(b1-2)Man(a1-6)]Man(b1-4)GlcNAc(b1-4)[Fuc(a1-6)]GlcNAc
# Method in brief: as §1
# [8] = target: GlcNAc(b1-3)Gal(b1-4)GlcNAc(b1-3)Gal(b1-4)GlcNAc(b1-2)[GlcNAc(b1-3)Gal(b1-4)GlcNAc(b1-3)Gal(b1-4)GlcNAc(b1-6)]Man(a1-6)[GlcNAc(b1-3)Gal(b1-4)GlcNAc(b1-3)Gal(b1-4)GlcNAc(b1-2)Man(a1-3)]Man(b1-4)GlcNAc(b1-4)[Fuc(a1-6)]GlcNAc
# Method in brief: as §1
# [9] = target: GlcNAc(b1-3)Gal(b1-4)GlcNAc(b1-3)Gal(b1-4)GlcNAc(b1-3)Gal(b1-4)GlcNAc(b1-2)Man(a1-3)[GlcNAc(b1-3)Gal(b1-4)GlcNAc(b1-3)Gal(b1-4)GlcNAc(b1-3)Gal(b1-4)GlcNAc(b1-2)Man(a1-6)]Man(b1-4)GlcNAc(b1-4)GlcNAc
# Method in brief: as §1
# [10] = target: GlcNAc(b1-3)Gal(b1-4)GlcNAc(b1-3)Gal(b1-4)GlcNAc(b1-3)Gal(b1-4)GlcNAc(b1-2)Man(a1-3)[GlcNAc(b1-3)Gal(b1-4)GlcNAc(b1-3)Gal(b1-4)GlcNAc(b1-3)Gal(b1-4)GlcNAc(b1-2)Man(a1-6)]Man(b1-4)GlcNAc(b1-4)[Fuc(a1-6)]GlcNAc
# Method in brief: as §1
# [11] = target: GlcNAc(b1-3)Gal(b1-4)GlcNAc(b1-3)Gal(b1-4)GlcNAc(b1-3)Gal(b1-4)GlcNAc(b1-2)[GlcNAc(b1-3)Gal(b1-4)GlcNAc(b1-3)Gal(b1-4)GlcNAc(b1-3)Gal(b1-4)GlcNAc(b1-6)]Man(a1-6)[GlcNAc(b1-3)Gal(b1-4)GlcNAc(b1-3)Gal(b1-4)GlcNAc(b1-3)Gal(b1-4)GlcNAc(b1-2)Man(a1-3)]Man(b1-4)GlcNAc(b1-4)[Fuc(a1-6)]GlcNAc
# Method in brief: as §1
# [12] = target: GlcNAc(b1-3)Gal(b1-4)GlcNAc(b1-3)Gal(b1-4)GlcNAc(b1-3)Gal(b1-4)GlcNAc(b1-3)Gal(b1-4)GlcNAc(b1-2)Man(a1-3)[GlcNAc(b1-3)Gal(b1-4)GlcNAc(b1-3)Gal(b1-4)GlcNAc(b1-3)Gal(b1-4)GlcNAc(b1-3)Gal(b1-4)GlcNAc(b1-2)Man(a1-6)]Man(b1-4)GlcNAc(b1-4)GlcNAc
# Method in brief: as §1
# [13] = target: GlcNAc(b1-3)Gal(b1-4)GlcNAc(b1-3)Gal(b1-4)GlcNAc(b1-3)Gal(b1-4)GlcNAc(b1-3)Gal(b1-4)GlcNAc(b1-2)Man(a1-3)[GlcNAc(b1-3)Gal(b1-4)GlcNAc(b1-3)Gal(b1-4)GlcNAc(b1-3)Gal(b1-4)GlcNAc(b1-3)Gal(b1-4)GlcNAc(b1-2)Man(a1-6)]Man(b1-4)GlcNAc(b1-4)[Fuc(a1-6)]GlcNAc
# Method in brief: as §1
# [14] = target: GlcNAc(b1-3)Gal(b1-4)GlcNAc(b1-3)Gal(b1-4)GlcNAc(b1-3)Gal(b1-4)GlcNAc(b1-3)Gal(b1-4)GlcNAc(b1-2)[GlcNAc(b1-3)Gal(b1-4)GlcNAc(b1-3)Gal(b1-4)GlcNAc(b1-3)Gal(b1-4)GlcNAc(b1-3)Gal(b1-4)GlcNAc(b1-6)]Man(a1-6)[GlcNAc(b1-3)Gal(b1-4)GlcNAc(b1-3)Gal(b1-4)GlcNAc(b1-3)Gal(b1-4)GlcNAc(b1-3)Gal(b1-4)GlcNAc(b1-2)Man(a1-3)]Man(b1-4)GlcNAc(b1-4)[Fuc(a1-6)]GlcNAc
# Method in brief: as §1
# [15] = target: GlcNAc(b1-3)Gal(b1-4)GlcNAc(b1-3)Gal(b1-4)GlcNAc(b1-3)GalNAc
# Method in brief: as §1
# [16] = target: GlcNAc(b1-3)Gal(b1-4)GlcNAc(b1-3)GalNAc
# Method in brief: as §1
# [17] = target: GlcNAc(b1-3)Gal(b1-4)GlcNAc(b1-3)[GlcNAc(b1-3)Gal(b1-4)GlcNAc(b1-3)]GalNAc
# Method in brief: as §1
# [18] = target: GlcNAc(b1-3)Gal(b1-4)GlcNAc(b1-6)[Gal(b1-3)]GalNAc
# Method in brief: as §1
# [19] = target: GlcNAc(b1-3)Gal(b1-4)GlcNAc(b1-6)[GlcNAc(b1-3)Gal(b1-3)]GalNAc
# Method in brief: as §1
# [20] = target: GlcNAc(b1-3)Gal(b1-4)GlcNAc(b1-6)[GlcNAc(b1-3)]Gal(b1-4)GlcNAc
# Method in brief: as §1
# GlcNAc(b1-3)GalNAc = target: GlcNAc(b1-3)GalNAc
# Method in brief: as §1
# GlcNAc(b1-3)Man = target: GlcNAc(b1-3)Man
# Method in brief: as §1
# [21] = target: GlcNAc(b1-3)[GlcNAc(b1-4)][GlcNAc(b1-6)]GlcNAc
# Method in brief: as §1
# [22] = target: GlcNAc(b1-3)[GlcNAc(b1-6)]Gal(b1-4)GlcNAc
# Method in brief: as §1
# [23] = target: GlcNAc(b1-3)[GlcNAc(b1-6)]GalNAc
# Method in brief: as §1
# [24] = target: GlcNAc(b1-4)Gal(b1-4)GlcNAc
# Method in brief: as §1
# GlcNAc(b1-4)GlcNAc = target: GlcNAc(b1-4)GlcNAc
# Method in brief: as §1
# [25] = target: GlcNAc(b1-4)GlcNAc(b1-4)GlcNAc
# Method in brief: as §1
# [26] = target: GlcNAc(b1-4)GlcNAc(b1-4)GlcNAc(b1-4)GlcNAc(b1-4)GlcNAc
# Method in brief: as §1
# [27] = target: GlcNAc(b1-4)GlcNAc(b1-4)GlcNAc(b1-4)GlcNAc(b1-4)GlcNAc(b1-4)GlcNAc
# Method in brief: as §1
# [28] = target: GlcNAc(b1-4)[GlcNAc(b1-6)]GalNAc
# Method in brief: as §1
# [29] = target: GlcNAc(b1-6)Gal(b1-4)GlcNAc
# Method in brief: as §1
# GlcNAc(b1-6)GalNAc = target: GlcNAc(b1-6)GalNAc
# Method in brief: as §1
# [30] = target: GlcNAc6S(b1-3)Gal(b1-4)GlcNAc
# Method in brief: as §1
# Kdn(a2-3)Gal(b1-3)GalNAc = target: Kdn(a2-3)Gal(b1-3)GalNAc
# Method in brief: as §1
# Kdn(a2-3)Gal(b1-3)GlcNAc = target: Kdn(a2-3)Gal(b1-3)GlcNAc
# Method in brief: as §1
# Kdn(a2-3)Gal(b1-4)Glc = target: Kdn(a2-3)Gal(b1-4)Glc
# Method in brief: as §1
# Kdn(a2-3)Gal(b1-4)GlcNAc = target: Kdn(a2-3)Gal(b1-4)GlcNAc
# Method in brief: as §1
# [31] = target: Kdn(a2-3)Gal(b1-4)[Fuc(a1-3)]GlcNAc
# Method in brief: as §1
# Kdn(a2-6)Gal(b1-4)GlcNAc = target: Kdn(a2-6)Gal(b1-4)GlcNAc
# Method in brief: as §1
# [32] = target: Man(a1-2)Man(a1-2)Man(a1-3)Man
# Method in brief: as §1
# [33] = target: Man(a1-2)Man(a1-2)Man(a1-6)[Man(a1-3)]Man
# Method in brief: as §1
# Man(a1-2)Man(a1-3)Man = target: Man(a1-2)Man(a1-3)Man
# Method in brief: as §1
# [34] = target: Man(a1-2)Man(a1-3)[Man(a1-2)Man(a1-6)]Man
# Method in brief: as §1
binder,measurement,setting,value
B1,glycan array binding signal (z-score),GlcNAc(b1-3)Gal(b1-4)Glc,-0.121
same,glycan array binding signal (z-score),[1],-0.554
same,glycan array binding signal (z-score),[2],0.031
same,glycan array binding signal (z-score),[3],0.593
same,glycan array binding signal (z-score),[4],0.614
same,glycan array binding signal (z-score),[5],-0.502
same,glycan array binding signal (z-score),[6],0.6
same,glycan array binding signal (z-score),[7],0.334
same,glycan array binding signal (z-score),[8],-0.421
same,glycan array binding signal (z-score),[9],0.156
same,glycan array binding signal (z-score),[10],1.34
same,glycan array binding signal (z-score),[11],0.708
same,glycan array binding signal (z-score),[12],0.319
same,glycan array binding signal (z-score),[13],4.28
same,glycan array binding signal (z-score),[14],0.107
same,glycan array binding signal (z-score),[15],-0.957
same,glycan array binding signal (z-score),[16],-0.264
same,glycan array binding signal (z-score),[17],-0.52
same,glycan array binding signal (z-score),[18],-0.422
same,glycan array binding signal (z-score),[19],0.312
same,glycan array binding signal (z-score),[20],-0.108
same,glycan array binding signal (z-score),GlcNAc(b1-3)GalNAc,-0.454
same,glycan array binding signal (z-score),GlcNAc(b1-3)Man,-0.537
same,glycan array binding signal (z-score),[21],-0.26
same,glycan array binding signal (z-score),[22],-0.55
same,glycan array binding signal (z-score),[23],-0.65
same,glycan array binding signal (z-score),[24],0.012
same,glycan array binding signal (z-score),GlcNAc(b1-4)GlcNAc,-0.257
same,glycan array binding signal (z-score),[25],-0.106
same,glycan array binding signal (z-score),[26],-0.468
same,glycan array binding signal (z-score),[27],-0.531
same,glycan array binding signal (z-score),[28],-0.389
same,glycan array binding signal (z-score),[29],0.528
same,glycan array binding signal (z-score),GlcNAc(b1-6)GalNAc,0.29
same,glycan array binding signal (z-score),[30],0.061
same,glycan array binding signal (z-score),Kdn(a2-3)Gal(b1-3)GalNAc,0.233
same,glycan array binding signal (z-score),Kdn(a2-3)Gal(b1-3)GlcNAc,-0.161
same,glycan array binding signal (z-score),Kdn(a2-3)Gal(b1-4)Glc,-0.586
same,glycan array binding signal (z-score),Kdn(a2-3)Gal(b1-4)GlcNAc,0.863
same,glycan array binding signal (z-score),[31],-0.095
same,glycan array binding signal (z-score),Kdn(a2-6)Gal(b1-4)GlcNAc,0.821
same,glycan array binding signal (z-score),[32],-0.826
same,glycan array binding signal (z-score),[33],-0.537
same,glycan array binding signal (z-score),Man(a1-2)Man(a1-3)Man,0.369
same,glycan array binding signal (z-score),[34],-0.512
